Results from publication PMC10805704, “VCIP135 associates with both the N- and C-terminal regions of p97 ATPase” (The Journal of Biological Chemistry, 2023).
Numbering of substitutions follows the chain as printed. Numbers in names are those of the source. No constants are given. Whether binding was seen depends on the method and setting. Some binding calls cover weakened binding; strength is not graded here. Sequences can lack the tags named with a protein.

Sequences of proteins named here, by UniProt entry; tags and fusion partners are left off.
UniProt P46462: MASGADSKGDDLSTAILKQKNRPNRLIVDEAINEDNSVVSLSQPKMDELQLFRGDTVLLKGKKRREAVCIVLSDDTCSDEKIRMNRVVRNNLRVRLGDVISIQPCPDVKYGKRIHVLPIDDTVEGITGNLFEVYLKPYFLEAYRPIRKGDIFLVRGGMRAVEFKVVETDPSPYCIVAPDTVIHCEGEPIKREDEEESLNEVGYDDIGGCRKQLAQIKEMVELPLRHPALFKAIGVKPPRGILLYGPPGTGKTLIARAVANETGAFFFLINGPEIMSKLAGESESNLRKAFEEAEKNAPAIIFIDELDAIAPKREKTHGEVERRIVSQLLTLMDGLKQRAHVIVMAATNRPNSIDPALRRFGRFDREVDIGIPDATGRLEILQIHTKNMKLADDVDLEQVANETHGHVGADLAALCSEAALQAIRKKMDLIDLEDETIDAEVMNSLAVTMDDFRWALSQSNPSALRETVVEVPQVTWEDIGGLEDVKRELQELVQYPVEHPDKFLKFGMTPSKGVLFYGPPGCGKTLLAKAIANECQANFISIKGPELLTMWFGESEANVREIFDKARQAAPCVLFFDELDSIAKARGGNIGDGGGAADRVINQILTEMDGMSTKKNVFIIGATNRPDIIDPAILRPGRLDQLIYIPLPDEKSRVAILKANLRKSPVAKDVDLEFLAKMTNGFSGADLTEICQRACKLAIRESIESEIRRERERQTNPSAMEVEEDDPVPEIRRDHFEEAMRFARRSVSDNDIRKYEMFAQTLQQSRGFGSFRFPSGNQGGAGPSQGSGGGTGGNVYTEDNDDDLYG

T1: GST-tagged VCIP135(F1024L/L1031P) (rat) (UniProt Q8CF97)
T1 sequence: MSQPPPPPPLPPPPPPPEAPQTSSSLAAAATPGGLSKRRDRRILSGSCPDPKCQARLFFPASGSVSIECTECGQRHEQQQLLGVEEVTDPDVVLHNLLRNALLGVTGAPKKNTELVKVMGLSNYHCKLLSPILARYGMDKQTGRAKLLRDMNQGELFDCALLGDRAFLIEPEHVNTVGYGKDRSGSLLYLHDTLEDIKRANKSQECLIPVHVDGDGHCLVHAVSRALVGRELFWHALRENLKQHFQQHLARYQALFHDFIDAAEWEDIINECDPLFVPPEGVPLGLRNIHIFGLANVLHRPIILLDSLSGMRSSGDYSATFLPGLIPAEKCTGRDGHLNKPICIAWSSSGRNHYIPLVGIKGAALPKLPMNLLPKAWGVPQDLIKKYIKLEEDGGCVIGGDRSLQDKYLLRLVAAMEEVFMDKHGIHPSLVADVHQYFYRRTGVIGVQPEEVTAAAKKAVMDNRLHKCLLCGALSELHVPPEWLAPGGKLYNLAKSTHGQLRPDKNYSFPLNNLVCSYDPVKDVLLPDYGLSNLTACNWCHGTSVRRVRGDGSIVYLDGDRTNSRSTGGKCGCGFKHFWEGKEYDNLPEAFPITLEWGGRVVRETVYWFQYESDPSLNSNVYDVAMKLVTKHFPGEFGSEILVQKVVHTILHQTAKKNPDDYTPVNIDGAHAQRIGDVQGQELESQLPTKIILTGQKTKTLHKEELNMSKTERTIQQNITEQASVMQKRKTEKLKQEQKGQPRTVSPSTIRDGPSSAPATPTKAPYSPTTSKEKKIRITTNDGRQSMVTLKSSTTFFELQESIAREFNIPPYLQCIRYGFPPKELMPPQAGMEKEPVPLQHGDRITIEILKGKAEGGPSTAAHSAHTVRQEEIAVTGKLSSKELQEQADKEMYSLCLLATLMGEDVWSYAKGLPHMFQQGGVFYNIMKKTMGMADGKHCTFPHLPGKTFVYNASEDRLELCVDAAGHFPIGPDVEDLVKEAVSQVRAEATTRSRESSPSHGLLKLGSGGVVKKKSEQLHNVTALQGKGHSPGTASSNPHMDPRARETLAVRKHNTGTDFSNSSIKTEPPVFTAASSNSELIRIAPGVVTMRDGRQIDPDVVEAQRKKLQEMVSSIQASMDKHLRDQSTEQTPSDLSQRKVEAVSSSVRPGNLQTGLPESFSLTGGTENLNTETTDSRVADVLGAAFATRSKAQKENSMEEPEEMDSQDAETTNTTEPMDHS

B1: His-tagged full-length VCIP135 (protein, UniProt Q8CF97 1-1221)
chain: T1 sequence with L1024F, P1031L
B2: His-tagged VCIP135(361-743) (domain or fragment, UniProt Q8CF97 361-743)
chain: KGAALPKLPMNLLPKAWGVPQDLIKKYIKLEEDGGCVIGGDRSLQDKYLLRLVAAMEEVFMDKHGIHPSLVADVHQYFYRRTGVIGVQPEEVTAAAKKAVMDNRLHKCLLCGALSELHVPPEWLAPGGKLYNLAKSTHGQLRPDKNYSFPLNNLVCSYDPVKDVLLPDYGLSNLTACNWCHGTSVRRVRGDGSIVYLDGDRTNSRSTGGKCGCGFKHFWEGKEYDNLPEAFPITLEWGGRVVRETVYWFQYESDPSLNSNVYDVAMKLVTKHFPGEFGSEILVQKVVHTILHQTAKKNPDDYTPVNIDGAHAQRIGDVQGQELESQLPTKIILTGQKTKTLHKEELNMSKTERTIQQNITEQASVMQKRKTEKLKQEQKGQPR
B3: His-tagged VCIP135(744-999) (domain or fragment, UniProt Q8CF97 744-999)
chain: TVSPSTIRDGPSSAPATPTKAPYSPTTSKEKKIRITTNDGRQSMVTLKSSTTFFELQESIAREFNIPPYLQCIRYGFPPKELMPPQAGMEKEPVPLQHGDRITIEILKGKAEGGPSTAAHSAHTVRQEEIAVTGKLSSKELQEQADKEMYSLCLLATLMGEDVWSYAKGLPHMFQQGGVFYNIMKKTMGMADGKHCTFPHLPGKTFVYNASEDRLELCVDAAGHFPIGPDVEDLVKEAVSQVRAEATTRSRESSPS
B4: His-tagged VCIP135(1054-1221) (domain or fragment, UniProt Q8CF97 1054-1221)
chain: NTGTDFSNSSIKTEPPVFTAASSNSELIRIAPGVVTMRDGRQIDPDVVEAQRKKLQEMVSSIQASMDKHLRDQSTEQTPSDLSQRKVEAVSSSVRPGNLQTGLPESFSLTGGTENLNTETTDSRVADVLGAAFATRSKAQKENSMEEPEEMDSQDAETTNTTEPMDHS
B5: His-tagged full-length VCIP135(L133S/F1024L/L1031P) (protein, UniProt Q8CF97 1-1221)
chain: T1 sequence with L133S

Tests used:
[1] = target: T1, GST-tagged VCIP135(F1024L/L1031P) (rat); experiment: pull-down; GST-VCIP135(F1024L/L1031P) (0.90 μg) incubated with His-p97wt (1.2 μg) or His-p97(199-806) (2.0 μg), isolated on glutathione beads, then incubated with His-VCIP135wt (1.0 μg); all in 1 mM AMP-PNP; Western blot with antibodies to GST-tag and His-tag; both purified
[2] = target: GST-VCIP135(F1024L/L1031P) incubated with His-tagged p97(199-806) (p97ΔN) and isolated on glutathione beads (rat | not stated) (UniProt Q8CF97+P46462); experiment: as above
[3] = target: complex of GST-VCIP135(F1024L/L1031P) and His-tagged p97wt, formed beforehand and isolated on glutathione beads (rat | not stated) (UniProt Q8CF97+P46462); experiment: as above
[4] = target: endogenous p97 purified from rat liver cytosol, biotinylated (rat (endogenous in rat liver)) (UniProt P46462); experiment: pull-down; endogenous rat liver p97, biotinylated, immobilised on streptavidin beads; His-tagged VCIP135 or its fragments or mutants in solution; 1 mM AMP-PNP (Figs 1A, 5C, 5D: the indicated nucleotide, 1 mM); 20 mM HEPES, 100 mM KCl, 1 mM MgCl2, 1 mM DTT, 0.5% CHAPS, 10% glycerol, pH 7.4; Western blot with antibodies to p97 and His-tag; both purified

| Molecule | binding [4] | further results |
| --- | --- | --- |
| His-tagged p97wt (from UniProt P46462 1-806) |  | binding [1]: binds |
| B1 |  | binding [2]: no binding (tested: 1.0 μg); binding [3]: binds |
| B2 | no binding (tested: 0.77 μg (p97 on beads, 0.50 μg)) |  |
| B3 | no binding (tested: 0.33 μg (p97 on beads, 0.75 μg)) |  |
| B4 | no binding (tested: 0.40 μg (p97 on beads, 0.75 μg)) |  |
| B5 | no binding (tested: 1.0 μg (p97 on beads, 0.40 μg)) |  |
